Results taken from article PMC12136788.
The list shows a part of the results.

B1: chr4:144465060:144465061:+_ENSG00000153147_ENST00000283131|hu_hu|FALSE|FALSE (ssRNA)
RNA: GGGAGUUCUACAGUCCGACGAUCAUAGUCUUCUCCUUCGAAGUUAUAAACACUUGACUCUGUAUCCAUUGUAAAGUUUCUAAGUGAACUUUCGCCCAUCUUGGAGAGCUUUUCAUUCAUCUCUGCAGUCUUCUUUGCACCUCUCAACAGAGGAUUGAGCAUCA
B2: 70595676_70597887_2548_CDS_ENSG00000189091_ENST00000302516|human|control|control (ssRNA)
RNA: GGGAGUUCUACAGUCCGACGAUCGAUAAUAAGGUUGUUACUCUCAGGGUGGAUGACAAAUUUCCUGGGUGUGUACUGCAGUGGGAAGGCUACUUGAUUGAAGACAGCACCGAGCUUCUCUAAUGCCAAAAUCCGUAGGGUGUUCAACAGAGGAUUGAGCAUCA
B3: 187367266_187368830_773_CDS_ENSG00000065548_ENST00000337859|human|control|control (ssRNA)
RNA: GGGAGUUCUACAGUCCGACGAUCACCCCCUCCAGGGCAUACCCAAAACCAGCCAUACUUGUUGUUUUCAAUAGCUUCCAGGAAAUGCUUGCACACUAUUUGAGUUUUUGGUUUUUUCUUUUCCGCCUCACCGUGCUUCUUGUUCAACAGAGGAUUGAGCAUCA
B4: chr16:83842930:83842931:+_ENSG00000230989_ENST00000433866|hu_hu|FALSE|FALSE (ssRNA)
RNA: GGGAGUUCUACAGUCCGACGAUCUUCUUCCACCCCAGCCUGUGUCAUGAGGUCCGCGAUAUUCUUUUCCAGAUCAUCAAUGCGACUACUCAUAUCAUCAAUUCUCCCAAUGAUCUGGUCAGACAUGGUCUGAAAUUUAUCUUGCAACAGAGGAUUGAGCAUCA
B5: chr16:94690093:94690094:+_ENSMUSG00000040785_ENSMUST00000117648|mus_hu|mus_mus_mus_hu_True|8_68 (ssRNA)
RNA: GGGAGUUCUACAGUCCGACGAUCGGGCUGGGAUGACGGACACACAGCCUCGAUUCCAGGGGGAAAAAAAAAUAGCCGAUACUAAUUAAAAAGUGUUAAUGAUUUUUGAAAAUCAGAUUACAUCUAUUUGAAUCAUAAAGCAAACAACAGAGGAUUGAGCAUCA
B6: chr9:15127005:15127006:-_ENSMUSG00000046111_ENSMUST00000161132|mus_hu|FALSE|FALSE (ssRNA)
RNA: GGGAGUUCUACAGUCCGACGAUCUGGUAUAGAGCUCUGUAAUGAAAAUGAUCCAGAACUUGCAAAAAGCUCUGAUUCUCCUAGUUGAGAUAGUUUUUUGGUGAUUUUUGGAAUGUCUGUUUCAGCUGAAUUCUCAAAAUAUUUCAACAGAGGAUUGAGCAUCA
B7: chr5:37680062:37680063:+_ENSMUSG00000029121_ENSMUST00000031004|mus_hu|mus_mus_mus_hu_False|28_78 (ssRNA)
RNA: GGGAGUUCUACAGUCCGACGAUCUUUGGGUGUAGCUGGUACCUCGUACACAGGACCAUCGUACAUGCCCCUGGAAACCCCUUGCAAUCCAAAAACCUUAUUCCUGAUCCUGACACGCUGGUACAGGUGCUCCGGGAACGCCUUCAACAGAGGAUUGAGCAUCA
B8: chr14:76906579:76906580:+_ENSMUSG00000022010_ENSMUST00000022587|mus_hu|FALSE|FALSE (ssRNA)
RNA: GGGAGUUCUACAGUCCGACGAUCUGGAAAAGAGAUAAUGGCAUAUGUCAGUCUCACGUCUCUUUCGCAGCGAGCAAUGAAAUGGGUGACUGUGGAGGCAGAUUCUCCCUAGCACAUCUUCUCCGUCUGUUCAGUUCACACGCACAACAGAGGAUUGAGCAUCA
B9: 72050788_72050908_1190_CDS_ENSG00000133858_ENST00000378743|human|control|control (ssRNA)
RNA: GGGAGUUCUACAGUCCGACGAUCCUGAAAAGUUUUGACUUGUGUUUUCUCCUCAGGAGCUACUUCUUUACUUGAAUCCUUUGUAAUACUGACAUUAUCAGUGCUAGUUUGGUCCUCGAAGUUCAAUGUUUUAGGAUCUUCCUGCAACAGAGGAUUGAGCAUCA
B10: chr14:62205016:62205017:+_ENSG00000100644_ENST00000337138|hu_mus|motif|central (ssRNA)
RNA: GGGAGUUCUACAGUCCGACGAUCCUGAUCUUGAAUCUGGGGCAUGGUAAAAGAAAGUCCCAGUGACUCUGGACUUGAUUCGGAUUUUAAUGCAACCUCUUGAUUCAGUGCAGGAUCAGCACUACUUCGAAGUGGCUUUGGAGUCAACAGAGGAUUGAGCAUCA
B11: chr1:163112212:163112213:-_ENSG00000143248_ENST00000313961|hu_hu|hu_hu_hu_mus_False|28_78 (ssRNA)
RNA: GGGAGUUCUACAGUCCGACGAUCUUUUAUUAUCAGUAAGAGUGAGUUACAUACUAGAUAAAGUAUUGGAUACAAUAAUCAGGAAACAAACACUAUUGGUCCAGAAUUUAAAAUAUAAUGAGCGAAGUGCUGGCACAGGACUUACAACAGAGGAUUGAGCAUCA
B12: chr9:136895555:136895556:-_ENSG00000169925_ENST00000303407|hu_hu|motif|central (ssRNA)
RNA: GGGAGUUCUACAGUCCGACGAUCGAGUACUUUCUACCAUUUUUAUUCUGUUGUGUUGAGGCCAGCAUUGCAAUAAACAAGCGGAACGGCUUACAUUGGACUCAUUUUCAGUAACUGACAUUUACAGGAAUAUACUAGAAACGGCAACAGAGGAUUGAGCAUCA
B13: chr5:74638446:74638447:+_ENSG00000113161_ENST00000287936|hu_mus|FALSE|FALSE (ssRNA)
RNA: GGGAGUUCUACAGUCCGACGAUCAGGGGUGGGAGGCCACGAAGAGGCCAUGCAUCCGGAAAAGUCUUGACAACAUUGUAGCCUCACAGUCCUUGGAUCCUCCGGAUCUCAAUGGAGGCCAAGCCGGCCCAGCUGCCGUCUCCACAACAGAGGAUUGAGCAUCA
B14: 28503210_28503330_2704_CDS_ENSG00000100154_ENST00000397906|human|control|control (ssRNA)
RNA: GGGAGUUCUACAGUCCGACGAUCGAGCACAGACUCAUUUCCACUUAGCUGCUGCAGCAUGGCCAAUUGCUGCUCAAAGUAGCCAAUGGCUUCUUCCAUCACAUUCAUGUUCAUCUUUGUGAUGCCCAUGUUGCCAUAGACCUGCAACAGAGGAUUGAGCAUCA
B15: chr12:88510985:88510986:-_ENSMUSG00000034111_ENSMUST00000037418|mus_mus|FALSE|FALSE (ssRNA)
RNA: GGGAGUUCUACAGUCCGACGAUCUCUUAGACCCUUCAAGGUAUGUGUUCUGUGGUCUCCACAAUUACCUGGGUUUUAGUAAAUAAUACUUUGUCUCUCAAGUUCUCUUACUGCAAAACUUUAGUGCGUGAGUAGUGAAUGCAUCAACAGAGGAUUGAGCAUCA
B16: chr7:141450121:141450122:+_ENSG00000106028_ENST00000265304|hu_mus|hu_hu_hu_mus_True|1_18 (ssRNA)
RNA: GGGAGUUCUACAGUCCGACGAUCUCAUCCGUUCUAUGCCUUUUCUUUUGUCUGGUCACUCAGAAAUAUAAUGUUAUCAGCUAUGAUUGUUGUUGCUUGCCGCCUCACAUUGUUUUUAUCCAUGUAUUCGCCAUAGUCUAUUUUCAACAGAGGAUUGAGCAUCA
B17: chr2:32445735:32445736:+_ENSG00000152683_ENST00000406369|hu_mus|FALSE|FALSE (ssRNA)
RNA: GGGAGUUCUACAGUCCGACGAUCUCGCUAUUCCCCAUCACAAUAAGUUAGAGUCUGUCAGGGUCUUGGCUGCCCCAUCCUGUUGAUUCCAUAUCUACUUGGUAUAUGUGGGAAGGUGGGCCUCAAUCCCUGGCCUGCUCCAACCAACAGAGGAUUGAGCAUCA
B18: chr7:141438946:141438947:+_ENSG00000106028_ENST00000265304|hu_mus|hu_hu_hu_mus_True|58_78 (ssRNA)
RNA: GGGAGUUCUACAGUCCGACGAUCGACGAAAUACCUGUAACACAGGUCUUCGAAACAUUCUAUUUUCUUUUCUUACAGUCUAAUCUUUAGGCUUUUCCUAAAGGAAAGAAAGAAAAGAGAAAAAUGAUAAAUCAAGAAACUACACAACAGAGGAUUGAGCAUCA
B19: chr7:112757510:112757511:-_ENSG00000214194_ENST00000397764|hu_hu|motif|central (ssRNA)
RNA: GGGAGUUCUACAGUCCGACGAUCUUUUCGUGCAUAUACCCCCAAGCAGGCACAAAUGCCUGUAAUGCUGAGAACCACACCGGACAAAAGGGCGAUUGCAUCACCGGCUUCUACUGCUUCCACAACAGGCAGCACCAAAAGCAGCAACAGAGGAUUGAGCAUCA
B20: 91299931_91300051_412_CDS_ENSMUSG00000038459_ENSMUST00000117085|mouse|control|control (ssRNA)
RNA: GGGAGUUCUACAGUCCGACGAUCGCUACACAUCUGGCCCAAGUCCACGGCGUUGCCGUGCGAGAAGAGCAGCGUGUAGCGGCUGGAGGGCGCGCAGCGCACGAACAUGCAGCCCAGCCGGUUGUCGCGGGCCGUGCGCGAGAACAACAGAGGAUUGAGCAUCA
B21: chr2:232320318:232320319:-_ENSG00000115053_ENST00000322723|hu_hu|hu_hu_hu_mus_True|38_78 (ssRNA)
RNA: GGGAGUUCUACAGUCCGACGAUCACUAUUAAAGUCUACAAAACCAAACCCUUUGGAGGACCCAGUUUCCCGAUCAGUGACUAUUCUUGCACGAACAGAGCCGUCAAAUGAUUCUUUUAAGGUCUCUUCAGUGGUAUCCUCAGACAACAGAGGAUUGAGCAUCA
B22: chr21:38528988:38528989:+_ENSG00000182670_ENST00000355666|hu_hu|motif|central (ssRNA)
RNA: GGGAGUUCUACAGUCCGACGAUCAAAAUCAAGCAGUUUAAGAGAUGCUCCAUAACGAGAAAAGAAAGUUCCUGUGGCAUCGGAGCCAAAGCUAUUAAGUUUUUGGAUCCAGGCGGCUAAUUUGGGCUCCACUUCUUUAAGCUCCAACAGAGGAUUGAGCAUCA

Molecular target: T1, UNK ZnF1-3 (human, UniProt Q9C0B0 31-174)
T1 sequence: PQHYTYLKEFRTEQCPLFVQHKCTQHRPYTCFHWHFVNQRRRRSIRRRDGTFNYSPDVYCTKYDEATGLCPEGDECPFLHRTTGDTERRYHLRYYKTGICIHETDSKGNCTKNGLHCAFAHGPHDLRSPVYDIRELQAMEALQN
Assay: nsRBNS (natural sequence RNA bind-n-seq); RBNS binding buffer (assumed for nsRBNS): 25 mM Tris pH 7.5, 150 mM KCl, 3 mM MgCl2, 0.01% Triton X-100, 500 ug/ml BSA, 20 U/ml SUPERase-In, 4 C; UNK is unkempt and MSI1 is Musashi-1; names of the RNAs are library labels; protein concentration not given here; high values mean tight binding

Binder	binding signal [enrichment R]
B1	0.387
B2	0.942
B3	0.719
B4	0.568
B5	0.945
B6	0.77
B7	0.701
B8	0.961
B9	0.391
B10	0.83
B11	1.73
B12	1.16
B13	1.1
B14	0.645
B15	0.837
B16	0.372
B17	0.567
B18	0.275
B19	0.898
B20	0.321
B21	0.716
B22	0.882
